{
  "source": "PubChem BioAssay (NCI)",
  "assay_in_all_cases": "NCI-60 cell line screen, 48 h",
  "key": {"[1]": {"test_system": "DMS 114 small cell lung"}, "[2]": {"test_system": "SK-OV-3 ovarian"}, "[3]": {"test_system": "DMS 273 small cell lung"}, "[4]": {"test_system": "CCRF-CEM leukemia"}, "[5]": {"test_system": "RPMI-8226 leukemia"}, "[6]": {"test_system": "SF-539 CNS"}, "[7]": {"test_system": "UACC-62 melanoma"}, "[8]": {"test_system": "EKVX NSCLC"}, "[9]": {"test_system": "HOP-92 NSCLC"}, "[10]": {"test_system": "NCI-H522 lung"}, "[11]": {"test_system": "M14 melanoma"}, "[12]": {"test_system": "COLO 205 colon"}, "[13]": {"test_system": "A549 NSCLC"}, "[14]": {"test_system": "IGROV1 ovarian"}, "[15]": {"test_system": "SNB-75 CNS"}, "[16]": {"test_system": "SF-295 CNS"}, "[17]": {"test_system": "SR leukemia"}, "[18]": {"test_system": "UACC-257 melanoma"}, "[19]": {"test_system": "HT29 colon"}, "[20]": {"test_system": "A498 renal"}, "[21]": {"test_system": "SN12C renal"}, "[22]": {"test_system": "SNB-19 CNS"}, "[23]": {"test_system": "OVCAR-3 ovarian"}, "[24]": {"test_system": "LOX IMVI melanoma"}, "[25]": {"test_system": "SK-MEL-28 melanoma"}, "[26]": {"test_system": "U251 CNS"}, "[27]": {"test_system": "HOP-62 NSCLC"}, "[28]": {"test_system": "OVCAR-5 ovarian"}, "[29]": {"test_system": "RXF 393 renal"}, "[30]": {"test_system": "UO-31 renal"}, "[31]": {"test_system": "MOLT-4 leukemia"}, "[32]": {"test_system": "KM12 colon"}, "[33]": {"test_system": "NCI-H23 lung"}, "[34]": {"test_system": "HCT-116 colon"}, "[35]": {"test_system": "SK-MEL-5 melanoma"}},
  "note": "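How tested: cells in 96-well plates exposed to compound for 48 hours at five concentrations. Abbreviation: GI50, concentration required for 50% inhibition of growth.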 A number of entries come with more than one value. This is not the full list of results. An entry can have further records. For part of these data: The tests behind the records often covered other concentration ranges, which the source does not state; a value can be the end of its range.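 TGI denotes the concentration required for complete inhibition of growth.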 For part of these data: Results that share an entry are repeated measurements in other runs, samples, wells, individuals or studies. Brackets tell where a record comes from. Letters count within one entry.",
  "data": [
    {"compound": "NC(CS)C(=O)NCCNc1ccc(NCCNC(=O)C(N)CS)c2c1C(=O)c1c(O)ccc(O)c1C2=O", "note": "(stereo not given)", "values": [
      {"measurement": "TGI", "setting": "[1]", "value": "12.1 nM and 125 nM"},
      {"measurement": "TGI", "setting": "[2]", "value": "1.05 µM and 81.5 nM"},
      {"measurement": "TGI", "setting": "[3]", "value": "12.2 nM and 440 nM"}
    ]},
    {"compound": "COc1ccc(/C=C/C(=O)c2ccccc2)cc1OC", "values": [
      {"measurement": "TGI", "setting": "[4]", "value": "> 100 µM [sample A] and 8.3 µM [sample B]"}
    ]},
    {"compound": "O=C(NC(Cc1ccccc1)C(=O)CCl)OCc1ccccc1", "note": "(stereo not given)", "values": [
      {"measurement": "TGI", "setting": "[5]", "value": "7.58 µM [sample A] and > 100 µM [sample B]"}
    ]},
    {"compound": "Nc1nc(N)c2nc(CNc3ccc(C(=O)NC(CCNC(=O)c4ccccc4C(=O)O)C(=O)O)cc3)cnc2n1", "note": "(stereo not given)", "values": [
      {"measurement": "TGI", "setting": "[6]", "value": "622 nM and > 100 µM"},
      {"measurement": "TGI", "setting": "[7]", "value": "478 nM and > 100 µM"}
    ]},
    {"compound": "COC1C(C)OC(OC2CC(C)(O)Cc3cc4c(c(O)c32)C(=O)c2c(O)cc3c(c2C4=O)OC2OC3(C)C(O)C(N(C)C)C2O)C(OC)C1(C)OC", "note": "(stereo not given)", "values": [
      {"measurement": "GI50", "setting": "[8]", "value": "157 nM [mean of 3 tests] and 5.54 nM [mean of 4 tests]"},
      {"measurement": "TGI", "setting": "[9]", "value": "8.83 nM, 322 nM, 530 nM"},
      {"measurement": "TGI", "setting": "[10]", "value": "7.43 nM, 495 nM, 204 nM"},
      {"measurement": "TGI", "setting": "[11]", "value": "6.75 nM and 685 nM"},
      {"measurement": "GI50", "setting": "[12]", "value": "54.1 nM [mean of 3 tests] and 5.04 nM [mean of 5 tests]"},
      {"measurement": "TGI", "setting": "[12]", "value": "7.17 nM, 263 nM, 110 nM"},
      {"measurement": "TGI", "setting": "[13]", "value": "488 nM [1 test] and 12.7 µM [mean of 5 tests]"},
      {"measurement": "GI50", "setting": "[14]", "value": "72.6 nM [mean of 3 tests] and 4.15 nM [mean of 5 tests]"},
      {"measurement": "TGI", "setting": "[15]", "value": "6.43 nM, 302 nM, 85.1 nM"},
      {"measurement": "TGI", "setting": "[16]", "value": "7.99 nM, 703 nM, 293 nM"},
      {"measurement": "TGI", "setting": "[17]", "value": "7.15 nM and 184 nM"},
      {"measurement": "TGI", "setting": "[18]", "value": "8.13 nM, 389 nM, 147 nM"},
      {"measurement": "TGI", "setting": "[19]", "value": "8.1 nM, 6.24 µM, 1.13 µM"},
      {"measurement": "GI50", "setting": "[20]", "value": "4.18 nM and 172 nM"},
      {"measurement": "TGI", "setting": "[20]", "value": "7.02 nM, 567 nM, 107 nM"},
      {"measurement": "TGI", "setting": "[6]", "value": "6.44 nM, 253 nM, 138 nM"},
      {"measurement": "GI50", "setting": "[21]", "value": "96.8 nM [mean of 4 tests] and 5.52 nM [mean of 5 tests]"},
      {"measurement": "TGI", "setting": "[22]", "value": "5.49 nM, 4.96 µM, 2.08 µM"},
      {"measurement": "TGI", "setting": "[23]", "value": "8.25 nM, 1.25 µM, 720 nM"},
      {"measurement": "TGI", "setting": "[24]", "value": "4.09 nM, 757 nM, 3.36 µM"},
      {"measurement": "TGI", "setting": "[25]", "value": "7.81 nM, 297 nM, 252 nM"},
      {"measurement": "TGI", "setting": "[26]", "value": "5.64 nM, 7.24 µM, 1.45 µM"},
      {"measurement": "GI50", "setting": "[27]", "value": "153 nM [mean of 4 tests] and 4.55 nM [mean of 5 tests]"},
      {"measurement": "GI50", "setting": "[28]", "value": "3.48 nM and 117 nM"},
      {"measurement": "TGI", "setting": "[28]", "value": "5.8 nM, 1.42 µM, 1.16 µM"},
      {"measurement": "TGI", "setting": "[29]", "value": "6.67 nM, 267 nM, 82.2 nM"},
      {"measurement": "TGI", "setting": "[7]", "value": "5.42 nM, 118 nM, 39.2 nM"},
      {"measurement": "GI50", "setting": "[30]", "value": "1.39 µM [mean of 3 tests] and 6.86 nM [mean of 5 tests]"},
      {"measurement": "TGI", "setting": "[30]", "value": "8.38 nM, 4.53 µM, 2.32 µM"},
      {"measurement": "TGI", "setting": "[31]", "value": "9.16 nM, 464 nM, 428 nM"},
      {"measurement": "GI50", "setting": "[2]", "value": "114 nM [mean of 3 tests] and 4.07 nM [mean of 4 tests]"},
      {"measurement": "TGI", "setting": "[32]", "value": "8.45 nM, 1.71 µM, 2.1 µM"},
      {"measurement": "TGI", "setting": "[33]", "value": "6.88 nM, 288 nM, 166 nM"},
      {"measurement": "TGI", "setting": "[34]", "value": "6.13 nM, 1.11 µM, 5.67 µM"},
      {"measurement": "GI50", "setting": "[35]", "value": "53.2 nM [mean of 4 tests] and 4.51 nM [mean of 5 tests]"},
      {"measurement": "TGI", "setting": "[35]", "value": "5.78 nM, 473 nM, 88.6 nM"},
      {"measurement": "GI50", "setting": "[5]", "value": "30.4 nM [mean of 3 tests] and 2.16 nM [mean of 4 tests]"},
      {"measurement": "TGI", "setting": "[5]", "value": "4.28 nM, 207 nM, 206 nM"}
    ]}
  ]
}
